Experimental findings from article PMC10726135 are described below.

The other results are listed elsewhere or left out. At the low end of the ranking the order means little. Measured with an extract: partners may take part in the binding.

In this test the target is T1, HNF4alpha8 (COS-7 nuclear extract) (UniProt P41235-5).
T1 sequence: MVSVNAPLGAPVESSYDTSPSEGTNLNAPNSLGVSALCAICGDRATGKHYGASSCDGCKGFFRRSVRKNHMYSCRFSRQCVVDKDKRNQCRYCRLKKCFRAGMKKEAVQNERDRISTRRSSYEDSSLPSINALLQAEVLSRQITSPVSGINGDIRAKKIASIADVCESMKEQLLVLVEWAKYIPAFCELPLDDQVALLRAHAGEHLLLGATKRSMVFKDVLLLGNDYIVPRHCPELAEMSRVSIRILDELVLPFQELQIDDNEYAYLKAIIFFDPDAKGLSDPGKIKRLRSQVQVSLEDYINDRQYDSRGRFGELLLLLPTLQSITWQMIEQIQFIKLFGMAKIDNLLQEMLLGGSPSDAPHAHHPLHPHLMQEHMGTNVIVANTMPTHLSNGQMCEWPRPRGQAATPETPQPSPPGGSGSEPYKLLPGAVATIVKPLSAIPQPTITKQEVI
The test is described as follows: protein-binding microarray. Particulars: COS-7 nuclear extract on double-stranded Agilent 4x180k PBM; binding buffer, salt, pH and temperature not given; high values mean tight binding; double strand, one strand shown; sequences stand for … in …GCCTAGGGAGATTAGAGTATCGGTCGA
ATAAAAGGCTGTTCTGATGCCATTCCCTGC: the binding signal (log2 normalized intensity) is -1.12.

Turning to AACATTCTTCTCAGTGTTTTGGGTCCTACA, the binding signal (log2 normalized intensity) turned out to be 1.14.

Turning to TACAGTGCACTTTGACCGCTCATTTGATCC, the binding signal (log2 normalized intensity) was determined as 5.69.

As for CGTATGAATGTGGGAAGCTGGCACAGCAGA, the binding signal (log2 normalized intensity) was -1.13.

As to AACCTATTAATATATTCATAACACTTGTAT, the binding signal (log2 normalized intensity) worked out at 1.22.

In the case of TGTGACCTTTGACTCATTATCCCCCGCAAC, the binding signal (log2 normalized intensity) amounted to 5.74.

For the sequence CAATTTCCCCCATGAAATTGAGATAAACAT, the binding signal (log2 normalized intensity) is 2.45.

For the sequence GCCACATCCCCCACACCGAGATAGTAGAGA, the binding signal (log2 normalized intensity) worked out at 3.27.

Regarding CTCTTAGTATTACCATGTCCTGTGATTAAG, the binding signal (log2 normalized intensity) is 1.16.

Consider AGTGTATTGTTCCCTTGCTCCACCCTTCTA, for which the binding signal (log2 normalized intensity) amounted to 1.72.

With ACTGCATTCCCTAGATGTCGCAGTAGATAA, the binding signal (log2 normalized intensity) is -1.09.

AAGGTCACCTCTTCAGATAGCCTTTGCCTC: the binding signal (log2 normalized intensity) was 1.81.

Regarding CTAAGGGCATCTACTTTTAAAACGCTCAAA, the binding signal (log2 normalized intensity) is -1.28.

Consider AACTTCTTCCAATGAAAGGTTAACCTGCTG, for which the binding signal (log2 normalized intensity) stood at 1.57.

Consider GGAAAAAGGGACAAAACTTCAAAGCCCCTG, for which the binding signal (log2 normalized intensity) was 1.22.

CCCATGGCAGAGGCTGTACTCCTCACTGTT: the binding signal (log2 normalized intensity) is -0.921.

On to CTGGGCCCAAGTGCTCCTCCCCATCTCAGC, for which the binding signal (log2 normalized intensity) came to 2.96.

On to GATCCAGTGTGCAAATGTGTCTTTTTTAGT, for which the binding signal (log2 normalized intensity) came to 1.59.

For the sequence GGGATGAGGACTTTGATCAGCAATGGAGAG, the binding signal (log2 normalized intensity) was determined as 3.75.

For the sequence ACAGAAGCTGCTCTAAGAATGCAGAAACAA, the binding signal (log2 normalized intensity) is -1.29.

For AAGGTAGGTAAGGGGGAATGCCAACAGGTC, the binding signal (log2 normalized intensity) is -1.2.

Take AAAATTCCTTATGGTTAAGGTGAAAGTCCG: the binding signal (log2 normalized intensity) was determined as 4.44.

For the sequence CTTGTTAGTAGGGTCAAAGTCTGGATCCGT, the binding signal (log2 normalized intensity) worked out at 5.68.

On to TCTTGTCCTTCCCCTTTTGTGTTTGTCCCT, for which the binding signal (log2 normalized intensity) came to 3.03.

With TATCTATTGGGTACAATGTTCACTATTTGA, the binding signal (log2 normalized intensity) was determined as 3.4.

On to TGCTTTAGGCCACCTGTGTCAACATGGACT, for which the binding signal (log2 normalized intensity) came out at 2.98.

Consider GCTAGAGAGTTCAAGAAGGGCAGTTGACAG, for which the binding signal (log2 normalized intensity) is -0.925.

With TTGGAAAGGCAGAGGAAAGCCCTAGCTGAC, the binding signal (log2 normalized intensity) was -1.32.

As to CAAAAAGGCAAAGGTGTCAGGACCTTTCTT, the binding signal (log2 normalized intensity) is -0.244.

On to CTTTCTATCAGCTCTCCGTGGACTTTGCCC, for which the binding signal (log2 normalized intensity) was 9.95.

Turning to TTTCCCCCTCACTGAATATGTTCGGGAGAC, the binding signal (log2 normalized intensity) turned out to be 2.89.

Take ACCCGGTGTGCGTGGGTGGGAAATCATTCC: the binding signal (log2 normalized intensity) was -0.666.

For the sequence GAATGTCGTGCCCTAATCTCACTCTTTGTT, the binding signal (log2 normalized intensity) worked out at 1.01.

For GAGCAAATACAGCACTCAAATGATCAAAGA, the binding signal (log2 normalized intensity) was -1.36.

Regarding AAACCCAAGATTTGGTGTTACCTTTGGACT, the binding signal (log2 normalized intensity) is 6.32.

With GCAGATGCTGGGCAAAGGGCAAGGCGTCTC, the binding signal (log2 normalized intensity) was found to be 3.09.

CTCTGTCATGTTCAATATACAGTTGGTATT: the binding signal (log2 normalized intensity) was 1.76.

AATTCTAGTCCTATCACTGTCTAGCTGTGT: the binding signal (log2 normalized intensity) is 1.16.

With CCATTTGCGCTGGTTTTATGGTGTCTTATC, the binding signal (log2 normalized intensity) was determined as 1.85.

For CTGTCATGGTGCTGGCGGGAGCATAGCAGC, the binding signal (log2 normalized intensity) was found to be 0.259.

Turning to CCAGACCAAGAGCTTAACCTTTGCCATGTG, the binding signal (log2 normalized intensity) stood at 3.95.

Regarding TTTGGGCGGGGAAAAGGGAGTAAAGGTCAC, the binding signal (log2 normalized intensity) turned out to be 6.15.

On to CCAGATGATCTTTACCCTGGAATGCTGTTA, for which the binding signal (log2 normalized intensity) stood at 1.74.

Consider AGGACCTTGGGTTCATTTTACAATGCAAAC, for which the binding signal (log2 normalized intensity) was 0.623.

For TTTCACGATAAAATACACAGGTAAACATTT, the binding signal (log2 normalized intensity) is -1.23.

TTCAAATTCTTTGCCATGACCTTTGAAGCC: the binding signal (log2 normalized intensity) was 7.52.

As for GGGATTGGGGATGCTCAAAGTACACTTGGA, the binding signal (log2 normalized intensity) was found to be 1.73.

As for TGTTGAATACTTGGAGACAGTGAGACGCAA, the binding signal (log2 normalized intensity) is -1.32.

In the case of GAGGATTAGTGGGAGATAAGGTGGAAAGAC, the binding signal (log2 normalized intensity) was -1.28.

As for TTTCAAACACCTGGGTCTGACCTCTTTCAA, the binding signal (log2 normalized intensity) was 3.43.

As to CAAGAATGCGTCATCCGCATCTGAAGATAA, the binding signal (log2 normalized intensity) was -1.39.

For AAGGTTGACACCTAGCTGAGCAGGGGACTA, the binding signal (log2 normalized intensity) is -1.4.

Consider CTTCTCTGCCTCAGAACTTCACTCAGTGGG, for which the binding signal (log2 normalized intensity) came to 1.23.

GATAAGAGCAAGAAACAGCAAATGCTTTTA: the binding signal (log2 normalized intensity) was -1.3.

For the sequence TCTGACTGGCCCAGCCTGGCCTCTAGAGTG, the binding signal (log2 normalized intensity) is -1.44.

Consider CACCTTTGGATCCAGCTCCTGATGTTTGGT, for which the binding signal (log2 normalized intensity) turned out to be 2.43.

As to CTTTGGTATGGACTGATATTCAAACAGGTC, the binding signal (log2 normalized intensity) was 1.39.

Take TCTGCCCCTTATCTTCTGGCCACCTCTTCC: the binding signal (log2 normalized intensity) worked out at 1.7.

On to ATCCTGGCTCTCCCACTTATCAGCCATGTG, for which the binding signal (log2 normalized intensity) was -1.19.

With AGGTAACATACCAAAAAGCATAACTGTATA, the binding signal (log2 normalized intensity) was -1.25.

For GCGGCTTCAGAGGCCAGCAGTGCTTTTCCC, the binding signal (log2 normalized intensity) was -1.2.

Consider CTGGGATGAGATACCCATTCACATGACCTT, for which the binding signal (log2 normalized intensity) was 3.92.

As for AGTAACACAGTAAGAGACTTCACCATCTGC, the binding signal (log2 normalized intensity) was -1.3.

For GCAGACTTAGACCCTGACCTGGCATATCTC, the binding signal (log2 normalized intensity) turned out to be 2.95.

With TCCTCAGGGAATTTCTAGGTTTGATCTTTG, the binding signal (log2 normalized intensity) amounted to 3.49.

Regarding GGAGTGTGGGGTGGTGTCAGGAGTACAGGT, the binding signal (log2 normalized intensity) amounted to 1.12.

In the case of GGAGAGCTAGTAAGGAGCTGAGTCATAGTG, the binding signal (log2 normalized intensity) was -1.25.

Turning to ACACCATTAGAGAACATGTACTTTGTACTG, the binding signal (log2 normalized intensity) was 6.41.

Regarding TGCAGCTGCTGCCCAAAGGTCACCTCTTCA, the binding signal (log2 normalized intensity) was found to be 4.68.

Turning to ATATAACCCTTGAACCTTCTTCTTGCAGTC, the binding signal (log2 normalized intensity) amounted to 3.34.

Regarding AAGGGTCAAGGGTCATTTGTTTTTACAGAC, the binding signal (log2 normalized intensity) came out at 6.77.

Turning to GGTGTAGGTGCTGCACCTTGAAACCCCTCC, the binding signal (log2 normalized intensity) was 3.68.
